{"source": "paper PMC4336329", "about": "(PLoS ONE, 2015)", "note": "The campaign covered roughly 310,000 compounds. About 2,200 (0.71%) showed an effect of 50% or more. The effect is printed as a negative number. The list shows a part of the results.", "data": [{"biological_target": "human ether-à-go-go-related gene (hERG) potassium channel (human, UniProt Q12809)", "sequence (Q12809 whole entry, looked up)": "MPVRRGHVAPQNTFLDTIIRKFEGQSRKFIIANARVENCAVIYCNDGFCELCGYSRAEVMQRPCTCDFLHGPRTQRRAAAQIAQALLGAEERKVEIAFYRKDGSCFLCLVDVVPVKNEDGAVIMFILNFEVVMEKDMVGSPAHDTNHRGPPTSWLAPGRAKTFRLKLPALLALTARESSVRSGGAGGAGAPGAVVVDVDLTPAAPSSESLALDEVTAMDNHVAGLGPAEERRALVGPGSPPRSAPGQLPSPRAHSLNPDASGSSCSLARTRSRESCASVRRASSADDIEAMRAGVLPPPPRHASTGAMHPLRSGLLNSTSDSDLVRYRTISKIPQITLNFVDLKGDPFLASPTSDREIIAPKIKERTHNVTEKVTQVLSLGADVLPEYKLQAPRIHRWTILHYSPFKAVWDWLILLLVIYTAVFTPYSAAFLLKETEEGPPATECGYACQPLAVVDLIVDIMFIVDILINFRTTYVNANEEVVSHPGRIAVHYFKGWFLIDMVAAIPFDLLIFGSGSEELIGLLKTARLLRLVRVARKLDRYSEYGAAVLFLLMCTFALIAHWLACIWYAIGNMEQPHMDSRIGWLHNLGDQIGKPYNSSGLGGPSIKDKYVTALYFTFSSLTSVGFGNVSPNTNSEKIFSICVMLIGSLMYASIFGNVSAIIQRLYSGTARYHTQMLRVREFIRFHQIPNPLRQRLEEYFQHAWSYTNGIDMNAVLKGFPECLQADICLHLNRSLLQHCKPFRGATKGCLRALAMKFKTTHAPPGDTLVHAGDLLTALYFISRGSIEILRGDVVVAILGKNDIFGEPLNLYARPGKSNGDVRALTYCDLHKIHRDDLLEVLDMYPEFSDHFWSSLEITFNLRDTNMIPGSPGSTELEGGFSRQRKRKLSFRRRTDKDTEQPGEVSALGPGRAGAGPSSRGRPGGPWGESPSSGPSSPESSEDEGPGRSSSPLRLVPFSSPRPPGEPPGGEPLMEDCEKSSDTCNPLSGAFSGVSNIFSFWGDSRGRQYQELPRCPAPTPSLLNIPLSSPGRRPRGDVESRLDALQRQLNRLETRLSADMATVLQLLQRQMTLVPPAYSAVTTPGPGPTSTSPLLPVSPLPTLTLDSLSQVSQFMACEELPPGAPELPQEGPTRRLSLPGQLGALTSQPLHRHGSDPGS", "assay": "primary screen, population patch clamp on CHO cells stably expressing hERG", "units": {"hERG current change (%, negative = inhibition) at 1uM": "%"}, "values": [{"smiles": "O=C(CSc1nnc2sc3ccccc3n12)N1CCN(c2ccccc2)CC1", "hERG current change (%, negative = inhibition) at 1uM": 2.32}, {"smiles": "CC1CN(C(=O)COC(=O)c2cccs2)CC(C)O1", "note": "(stereo not shown)", "hERG current change (%, negative = inhibition) at 1uM": 20.2}, {"smiles": "COC(=O)c1cc(C#N)c(N(C)Cc2ccccc2)nc1C", "hERG current change (%, negative = inhibition) at 1uM": 12.7}, {"smiles": "Cc1cc(NCCCN2CCOCC2)n2ncc(-c3ccccc3)c2n1", "hERG current change (%, negative = inhibition) at 1uM": 3.96}, {"smiles": "COc1cccc(-c2cc(C(=O)NCCN3CCOCC3)no2)c1", "hERG current change (%, negative = inhibition) at 1uM": 1.57}, {"smiles": "COc1cccc2c(C)nc(Nc3nc(CSc4nnc(C)s4)cc(=O)[nH]3)nc12", "hERG current change (%, negative = inhibition) at 1uM": 9.24}, {"smiles": "Cn1c(C(=O)OC(C(=O)NC(C)(C)C)c2cccnc2)cc2sccc21", "note": "(stereo not shown)", "hERG current change (%, negative = inhibition) at 1uM": -8.37}, {"smiles": "Cc1ccc2nc3c(cc(C#N)c(=O)n3-c3nccs3)c(=O)n2c1", "hERG current change (%, negative = inhibition) at 1uM": 17.4}, {"smiles": "CCOc1ccc(N(CC(=O)N2CCOCC2)S(=O)(=O)c2ccc(F)cc2)cc1", "hERG current change (%, negative = inhibition) at 1uM": -3.89}, {"smiles": "COc1ccc(C(=O)N2CCNC(=O)C2CC(=O)Nc2ccc(C)cc2)cc1", "note": "(stereo not shown)", "hERG current change (%, negative = inhibition) at 1uM": 19.3}, {"smiles": "O=C(O)c1ccccc1-c1ccccc1C(=O)Nc1ccccc1Br", "hERG current change (%, negative = inhibition) at 1uM": 13.3}, {"smiles": "COc1ccc(/C=N/NC(=O)CC(=O)NCc2cccnc2)cc1", "hERG current change (%, negative = inhibition) at 1uM": 4.15}, {"smiles": "Cc1oc(-c2ccc(Cl)cc2)nc1CN1CCCC(C(=O)N2CCOCC2)C1", "note": "(stereo not shown)", "hERG current change (%, negative = inhibition) at 1uM": -32.9}, {"smiles": "CC12CCC(C(=O)N(CSC(=S)N/N=C\\c3ccccc3O)C1=O)C2(C)C", "note": "(stereo not shown)", "hERG current change (%, negative = inhibition) at 1uM": 16.5}, {"smiles": "CCC/C(=N\\NC(=O)c1cccc(C)c1)c1ccccc1", "hERG current change (%, negative = inhibition) at 1uM": 13.3}, {"smiles": "Cn1c(=O)c2c(nc(N/N=C/c3ccco3)n2C)n(C)c1=O", "hERG current change (%, negative = inhibition) at 1uM": 5.19}, {"smiles": "CC(NC(=O)c1cc(-c2ccc3c(c2)OCO3)nc2ccccc12)C(C)(C)C.Cl", "note": "(stereo not shown)", "hERG current change (%, negative = inhibition) at 1uM": -5.28}, {"smiles": "CNC(=O)Oc1ccc2c(c1)[C@]1(C)CCN(C)[C@@H]1N2C.O=C(O)c1ccccc1O", "hERG current change (%, negative = inhibition) at 1uM": 11.7}, {"smiles": "COc1cc(NC(=O)COC(=O)CNC(=O)c2cc(C)cc(C)c2)c(C)cc1[N+](=O)[O-]", "hERG current change (%, negative = inhibition) at 1uM": -1.75}, {"smiles": "COc1ccc(NC(=O)CN(C)C(=O)CNC(=O)c2ccc3c(c2)OCO3)cc1", "hERG current change (%, negative = inhibition) at 1uM": 11.4}, {"smiles": "O=C(COC(=O)c1cccc(N2C(=O)c3ccccc3C2=O)c1)Nc1ccccc1", "hERG current change (%, negative = inhibition) at 1uM": 18.2}, {"smiles": "CC1(C(=O)O)Oc2cccnc2NC1=O", "note": "(stereo not shown)", "hERG current change (%, negative = inhibition) at 1uM": 10.9}, {"smiles": "COC(=O)c1cc(-c2cccs2)nn1-c1ccccc1", "hERG current change (%, negative = inhibition) at 1uM": 6.83}, {"smiles": "Cc1ccc(C(=O)N2CCCC(c3ccc(Cl)cc3)=N2)cc1", "hERG current change (%, negative = inhibition) at 1uM": 9.14}, {"smiles": "COc1ccc(C(=O)Nc2cc(OC)cc3cccnc23)cc1", "hERG current change (%, negative = inhibition) at 1uM": 15.2}, {"smiles": "Cc1ccc(C2=NOC3(CC(=O)N(c4ccccc4)C3=O)C2)cc1", "note": "(stereo not shown)", "hERG current change (%, negative = inhibition) at 1uM": 13.7}, {"smiles": "CCOc1ccccc1NC(=O)COC(=O)C1CC(=O)N(c2c(C)cccc2C)C1", "note": "(stereo not shown)", "hERG current change (%, negative = inhibition) at 1uM": 11.8}, {"smiles": "COc1ccc(C(CNc2ccc(S(C)(=O)=O)cc2[N+](=O)[O-])N(C)C)cc1OC", "note": "(stereo not shown)", "hERG current change (%, negative = inhibition) at 1uM": -3}, {"smiles": "N#CCCn1cc(C(=O)Nc2ccc(C(=O)O)cc2)c(-c2cccs2)n1", "hERG current change (%, negative = inhibition) at 1uM": 12.9}, {"smiles": "Cl.c1ccc(CN2CCC3(CCCc4ccccc43)CC2)cc1", "hERG current change (%, negative = inhibition) at 1uM": -23.2}, {"smiles": "Cn1c(OCc2cccnc2)nc2c1c(=O)n(Cc1ccc(Cl)cc1)c(=O)n2C", "hERG current change (%, negative = inhibition) at 1uM": -28}, {"smiles": "CCOC(=O)N1CCC(=NNc2nc(C)cc(=O)[nH]2)CC1", "hERG current change (%, negative = inhibition) at 1uM": 24.3}, {"smiles": "Cc1ccc(Nc2nc(Nc3ccc(C)cc3)nc(SC3=NCCS3)n2)cc1", "hERG current change (%, negative = inhibition) at 1uM": -0.759}, {"smiles": "Cc1ccc(N(CC(=O)N2CC(=O)Nc3ccccc32)S(=O)(=O)c2ccc3c(c2)OCCO3)cc1", "hERG current change (%, negative = inhibition) at 1uM": 21}, {"smiles": "CCOc1ccc(NC(=O)CN(C)C(=O)c2ccccc2-n2cnnn2)cc1OCC", "hERG current change (%, negative = inhibition) at 1uM": 13.4}, {"smiles": "COCCOC(=O)c1c(NC(=O)COC(=O)Cc2cccc(OC)c2)sc(C(N)=O)c1C", "hERG current change (%, negative = inhibition) at 1uM": 15.4}, {"smiles": "O=C(/C=C/c1ccccc1)Nn1cnnc1", "hERG current change (%, negative = inhibition) at 1uM": 9.79}, {"smiles": "CCOC(=O)c1c(C)n(C)c2ccc(OC)c(NC(=O)CN3CCN(C4CCCCC4)CC3)c12", "hERG current change (%, negative = inhibition) at 1uM": -3.13}, {"smiles": "CCn1nc(C(=O)NCCc2ccc(S(N)(=O)=O)cc2)c2ccccc2c1=O", "hERG current change (%, negative = inhibition) at 1uM": 1.53}, {"smiles": "COc1ccc(C(=O)N(Cc2ccco2)C(C(=O)NC2CCCC2)c2ccc(O)cc2)cc1OC", "note": "(stereo not shown)", "hERG current change (%, negative = inhibition) at 1uM": -7.06}, {"smiles": "CCOc1ccc2nc(NS(=O)(=O)Cc3ccccc3)sc2c1", "hERG current change (%, negative = inhibition) at 1uM": 3.46}, {"smiles": "Cc1ccc(-c2nc(CS(=O)CC(=O)NC3CCCCC3)c(C)o2)cc1", "note": "(stereo not shown)", "hERG current change (%, negative = inhibition) at 1uM": 15.5}, {"smiles": "O=C(CSc1nnc(C2CC2)n1Cc1ccccc1)NCc1ccccc1", "hERG current change (%, negative = inhibition) at 1uM": 5.84}, {"smiles": "COC(=O)/C(=N\\Nc1ccc(Cl)cc1)Sc1nnc(-c2ccc(OC)cc2)n1C", "hERG current change (%, negative = inhibition) at 1uM": 2.29}, {"smiles": "COC(=O)c1sccc1NC(=O)Nc1ccccc1F", "hERG current change (%, negative = inhibition) at 1uM": -0.135}, {"smiles": "COc1ccccc1N1C(=O)CC(Nc2ccc(N3CCOCC3)cc2)C1=O", "note": "(stereo not shown)", "hERG current change (%, negative = inhibition) at 1uM": 7.94}, {"smiles": "O=c1[nH]c2ccccc2c(=O)n1Cc1ccccc1", "hERG current change (%, negative = inhibition) at 1uM": 14.5}, {"smiles": "CCN(CC)C(=O)C(=O)Nc1cccc(Br)c1", "hERG current change (%, negative = inhibition) at 1uM": 4.57}, {"smiles": "CCOC(=O)C(CCCCOc1ccc([N+](=O)[O-])cc1)C(=O)OCC", "hERG current change (%, negative = inhibition) at 1uM": -28.2}, {"smiles": "Cc1cc(C)n(-c2ncnc3sc(C)c(C)c23)n1", "hERG current change (%, negative = inhibition) at 1uM": 4.05}, {"smiles": "O=C(Nc1ccc(F)cc1)NC1(C(=O)NCc2ccc3c(c2)OCO3)CCCCC1", "hERG current change (%, negative = inhibition) at 1uM": 11.5}, {"smiles": "Cc1c(NC(=O)c2cccc(F)c2)c(=O)n(-c2ccccc2)n1C", "hERG current change (%, negative = inhibition) at 1uM": 18}, {"smiles": "CC1(c2nnc(-c3ccc(F)cc3)o2)CC(c2cccc(Cl)c2)=NO1", "note": "(stereo not shown)", "hERG current change (%, negative = inhibition) at 1uM": 0.846}, {"smiles": "Nc1c(C(=O)NCCCc2ccccc2)c2nc3ccccc3nc2n1Cc1cccs1", "hERG current change (%, negative = inhibition) at 1uM": 6.78}, {"smiles": "COc1cc(NC(=O)c2ccccc2Cl)c(OC)cc1NC(=O)CN1CCCCC1", "hERG current change (%, negative = inhibition) at 1uM": 0.137}]}]}
